Source: the supplement of paper PMC12423691
The list shows a part of the results. Binding of human transcription factors and regulators to the viral nucleoprotein by AlphaScreen, crude cell-free proteins, amounts not normalised, one pass. Fold of the Venus control; higher = more signal. No active / inactive call. Single-pass screen; sequences are the whole Swiss-Prot entries looked up by name.

B1: ARNTL2, Q8WYA1 (protein)
chain: MAAEEEAAAGGKVLREENQCIAPVVSSRVSPGTRPTAMGSFSSHMTEFPRKRKGSDSDPSQSGIMTEKVVEKLSQNPLTYLLSTRIEISASSGSRVEDGEHQVKMKAFREAHSQTEKRRRDKMNNLIEELSAMIPQCNPMARKLDKLTVLRMAVQHLRSLKGLTNSYVGSNYRPSFLQDNELRHLILKTAEGFLFVVGCERGKILFVSKSVSKILNYDQASLTGQSLFDFLHPKDVAKVKEQLSSFDISPREKLIDAKTGLQVHSNLHAGRTRVYSGSRRSFFCRIKSCKISVKEEHGCLPNSKKKEHRKFYTIHCTGYLRSWPPNIVGMEEERNSKKDNSNFTCLVAIGRLQPYIVPQNSGEINVKPTEFITRFAVNGKFVYVDQRATAILGYLPQELLGTSCYEYFHQDDHNNLTDKHKAVLQSKEKILTDSYKFRAKDGSFVTLKSQWFSFTNPWTKELEYIVSVNTLVLGHSEPGEASFLPCSSQSSEESSRQSCMSVPGMSTGTVLGAGSIGTDIANEILDLQRLQSSSYLDDSSPTGLMKDTHTVNCRSMSNKELFPPSPSEMGELEATRQNQSTVAVHSHEPLLSDGAQLDFDALCDNDDTAMAAFMNYLEAEGGLGDPGDFSDIQWTL
B2: HMOX1, P09601 (protein)
chain: MERPQPDSMPQDLSEALKEATKEVHTQAENAEFMRNFQKGQVTRDGFKLVMASLYHIYVALEEEIERNKESPVFAPVYFPEELHRKAALEQDLAFWYGPRWQEVIPYTPAMQRYVKRLHEVGRTEPELLVAHAYTRYLGDLSGGQVLKKIAQKALDLPSSGEGLAFFTFPNIASATKFKQLYRSRMNSLEMTPAVRQRVIEEAKTAFLLNIQLFEELQELLTHDTKDQSPSRAPGLRQRASNKVQDSAPVETPRGKPPLNTRSQAPLLRWVLTLSFLVATVAVGLYAM
B3: MXD1, Q05195 (protein)
chain: MAAAVRMNIQMLLEAADYLERREREAEHGYASMLPYNNKDRDALKRRNKSKKNNSSSRSTHNEMEKNRRAHLRLCLEKLKGLVPLGPESSRHTTLSLLTKAKLHIKKLEDCDRKAVHQIDQLQREQRHLKRQLEKLGIERIRMDSIGSTVSSERSDSDREEIDVDVESTDYLTGDLDWSSSSVSDSDERGSMQSLGSDEGYSSTSIKRIKLQDSHKACLGL
B4: ATF2, P15336 (protein)
chain: MKFKLHVNSARQYKDLWNMSDDKPFLCTAPGCGQRFTNEDHLAVHKHKHEMTLKFGPARNDSVIVADQTPTPTRFLKNCEEVGLFNELASPFENEFKKASEDDIKKMPLDLSPLATPIIRSKIEEPSVVETTHQDSPLPHPESTTSDEKEVPLAQTAQPTSAIVRPASLQVPNVLLTSSDSSVIIQQAVPSPTSSTVITQAPSSNRPIVPVPGPFPLLLHLPNGQTMPVAIPASITSSNVHVPAAVPLVRPVTMVPSVPGIPGPSSPQPVQSEAKMRLKAALTQQHPPVTNGDTVKGHGSGLVRTQSEESRPQSLQQPATSTTETPASPAHTTPQTQSTSGRRRRAANEDPDEKRRKFLERNRAAASRCRQKRKVWVQSLEKKAEDLSSLNGQLQSEVTLLRNEVAQLKQLLLAHKDCPVTAMQKKSGYHTADKDDSSEDISVPSSPHTEAIQHSSVSTSNGVSSTSKAEAVATSVLTQMADQSTEPALSQIVMAPSSQSQPSGS
B5: PRKD1, Q15139 (protein)
chain: MSAPPVLRPPSPLLPVAAAAAAAAAALVPGSGPGPAPFLAPVAAPVGGISFHLQIGLSREPVLLLQDSSGDYSLAHVREMACSIVDQKFPECGFYGMYDKILLFRHDPTSENILQLVKAASDIQEGDLIEVVLSASATFEDFQIRPHALFVHSYRAPAFCDHCGEMLWGLVRQGLKCEGCGLNYHKRCAFKIPNNCSGVRRRRLSNVSLTGVSTIRTSSAELSTSAPDEPLLQKSPSESFIGREKRSNSQSYIGRPIHLDKILMSKVKVPHTFVIHSYTRPTVCQYCKKLLKGLFRQGLQCKDCRFNCHKRCAPKVPNNCLGEVTINGDLLSPGAESDVVMEEGSDDNDSERNSGLMDDMEEAMVQDAEMAMAECQNDSGEMQDPDPDHEDANRTISPSTSNNIPLMRVVQSVKHTKRKSSTVMKEGWMVHYTSKDTLRKRHYWRLDSKCITLFQNDTGSRYYKEIPLSEILSLEPVKTSALIPNGANPHCFEITTANVVYYVGENVVNPSSPSPNNSVLTSGVGADVARMWEIAIQHALMPVIPKGSSVGTGTNLHRDISVSISVSNCQIQENVDISTVYQIFPDEVLGSGQFGIVYGGKHRKTGRDVAIKIIDKLRFPTKQESQLRNEVAILQNLHHPGVVNLECMFETPERVFVVMEKLHGDMLEMILSSEKGRLPEHITKFLITQILVALRHLHFKNIVHCDLKPENVLLASADPFPQVKLCDFGFARIIGEKSFRRSVVGTPAYLAPEVLRNKGYNRSLDMWSVGVIIYVSLSGTFPFNEDEDIHDQIQNAAFMYPPNPWKEISHEAIDLINNLLQVKMRKRYSVDKTLSHPWLQDYQTWLDLRELECKIGERYITHESDDLRWEKYAGEQGLQYPTHLINPSASHSDTPETEETEMKALGERVSIL
B6: TRIM40, Q6P9F5 (protein)
chain: MIPLQKDNQEEGVCPICQESLKEAVSTNCGHLFCRVCLTQHVEKASASGVFCCPLCRKPCSEEVLGTGYICPNHQKRVCRFCEESRLLLCVECLVSPEHMSHHELTIENALSHYKERLNRRSRKLRKDIAELQRLKAQQEKKLQALQFQVDHGNHRLEAGPESQHQTREQLGALPQQWLGQLEHMPAEAARILDISRAVTQLRSLVIDLERTAKELDTNTLKNAGDLLNRSAPQKLEVIYPQLEKGVSELLLQPPQKL
B7: ZMYM5, Q9UJ78 (protein)
chain: MEKCSVGGLELTEQTPALLGNMAMATSLMDIGDSFGHPACPLVSRSRNSPVEDDDDDDDVVFIESIQPPSISAPAIADQRNFIFASSKNEKPQGNYSVIPPSSRDLASQKGNISETIVIDDEEDIETNGGAEKKSSCFIEWGLPGTKNKTNDLDFSTSSLSRSKTKTGVRPFNPGRMNVAGDLFQNGEFATHHSPDSWISQSASFPSNQKQPGVDSLSPVALLRKQNFQPTAQQQLTKPAKITCANCKKPLQKGQTAYQRKGSAHLFCSTTCLSSFSHKRTQNTRSIICKKDASTKKANVILPVESSKSFQEFYSTSCLSPCENNWNLKKGVFNKSRCTICSKLAEIRHEVSVNNVTHKLCSNHCFNKYRLANGLIMNCCEHCGEYMPSKSTGNNILVIGGQQKRFCCQSCINEYKQMMETKSKKLTASENRKRNAFREENEKQLYGSSNTLLKKIEGIPEKKEKTSQLQLSVECGTDTLLIQENVNLPPSSTSTIADTFQEQLEEKNFEDSIVPVVLSADPGTWPRILNIKQRDTLVENVPPQVRNFNFPKDNTGRKFSETYYTRILPNGEKTTRSWLLYSTSKDSVFCLYCKLFGEGKNQLKNENGCKDWQHLSHILSKHEESEMHVNNSVKYSKLKSDLKKNKAIDAAEHRLYENEKNDGVLLLYT

molecular target: nucleoprotein N of Crimean-Congo hemorrhagic fever virus; test: AlphaScreen luminescence signal relative to Venus negative control (fold); higher = stronger binding to CCHFV N
Protocol: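 AlphaScreen binding of cell-free made, FLAG-GST-tagged human transcription factors and regulators (crude translation products) to biotinylated N protein; signal as fold of the FLAG-GST-Venus control. One pass.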

Row | Binder | AlphaScreen luminescence signal
1 | B1 | 2.28
2 | B2 | 2.56
3 | B3 | 4.37
4 | B4 | 2.05
5 | B5 | 11
6 | B6 | 1.12
7 | B7 | 1.35
